# Results: publication PMC4336329 (PLoS ONE, 2015)
# Out of some 310,000 compounds screened, about 14,000 (4.5%) showed an effect of 50% or more. Effects have a minus sign here. Some of the results follow.
# Molecular target: human ether-à-go-go-related gene (hERG) potassium channel (human, UniProt Q12809)
# Experiment: primary screen, population patch clamp on CHO cells stably expressing hERG
# 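Note: peak tail current of the secondary pulse compared with the same well before compound.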
# Chain of human ether-à-go-go-related gene (hERG) potassium channel (Q12809 whole entry, looked up): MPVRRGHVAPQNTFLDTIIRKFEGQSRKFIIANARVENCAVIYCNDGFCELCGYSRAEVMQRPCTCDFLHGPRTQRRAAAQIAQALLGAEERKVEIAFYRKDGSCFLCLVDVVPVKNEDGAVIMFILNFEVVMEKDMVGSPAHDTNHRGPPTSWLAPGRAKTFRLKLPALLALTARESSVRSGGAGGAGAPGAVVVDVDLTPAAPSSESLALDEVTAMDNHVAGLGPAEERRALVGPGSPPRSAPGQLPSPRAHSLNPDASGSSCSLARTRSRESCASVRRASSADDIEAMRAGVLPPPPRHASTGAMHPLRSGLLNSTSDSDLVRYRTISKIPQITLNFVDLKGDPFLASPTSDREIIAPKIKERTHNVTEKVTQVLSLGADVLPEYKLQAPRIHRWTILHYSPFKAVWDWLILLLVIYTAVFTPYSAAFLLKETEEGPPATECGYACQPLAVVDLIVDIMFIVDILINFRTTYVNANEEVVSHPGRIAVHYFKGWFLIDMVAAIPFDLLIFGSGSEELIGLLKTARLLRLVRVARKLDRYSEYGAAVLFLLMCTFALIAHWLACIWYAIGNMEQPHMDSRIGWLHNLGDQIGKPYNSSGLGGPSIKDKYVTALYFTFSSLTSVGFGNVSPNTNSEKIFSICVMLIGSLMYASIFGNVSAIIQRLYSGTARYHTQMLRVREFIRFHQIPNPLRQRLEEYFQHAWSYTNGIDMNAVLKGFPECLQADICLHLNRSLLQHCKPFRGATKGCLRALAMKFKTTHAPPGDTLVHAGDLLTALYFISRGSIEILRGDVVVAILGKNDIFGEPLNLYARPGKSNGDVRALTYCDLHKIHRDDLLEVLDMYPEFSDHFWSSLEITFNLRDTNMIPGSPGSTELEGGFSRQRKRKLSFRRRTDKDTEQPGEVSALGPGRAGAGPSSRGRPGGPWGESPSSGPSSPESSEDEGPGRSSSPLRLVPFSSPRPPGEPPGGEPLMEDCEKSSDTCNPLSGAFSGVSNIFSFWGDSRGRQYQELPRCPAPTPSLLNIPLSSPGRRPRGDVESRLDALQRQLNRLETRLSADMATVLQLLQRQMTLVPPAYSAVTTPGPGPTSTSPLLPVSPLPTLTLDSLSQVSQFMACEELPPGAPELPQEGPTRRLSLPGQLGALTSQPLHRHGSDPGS
row,Structure (SMILES),"hERG current change (%, negative = inhibition) at 10uM [%]"
1,CCOC(=O)CNC=C(C(=O)OCC)C(=O)OCC,16.7
2,Cc1cccc(NC(=S)NC(C)CCc2ccccc2)c1 (stereo not shown),-4.89
3,CCNC(=O)Cc1ccc(NS(=O)(=O)c2ccc(F)cc2)cc1,-2.15
4,Cc1cccc(N2CCN(C(=O)c3ccc(CS(=O)Cc4ccc(Cl)cc4)o3)CC2)c1C (stereo not shown),-57
5,CCN(CC)S(=O)(=O)c1ccc(C)c(C)c1,-3.69
6,CCOP(=O)(OCC)C(NC(=O)Nc1ccc(Cl)c(Cl)c1)C(N)=O (stereo not shown),12.7
7,Cc1ccc(N(CC(=O)NCCc2ccccc2)C(=O)c2csnn2)cc1,-15.4
8,Cc1[nH]n(-c2ccc(Cl)cc2)c(=O)c1N=Nc1cccnc1,-5.19
9,CC(C)n1c(O)c(N=Nc2ccccn2)c2ccccc21,-8.08
10,Cc1ccccc1CNC(=O)CCc1ccccc1,11.7
11,CC(=O)c1ccc(C(=O)N2CCCC(N3CCN(c4ccc(F)cc4)CC3)C2)s1 (stereo not shown),-63.7
12,O=C(NCCNc1ccc([N+](=O)[O-])cc1)c1cccc(Br)c1,-1.98
13,CC(c1ccccc1C(O)c1ccccc1)N(C)C.Cl (stereo not shown),2.22
14,COc1ccc(/C=N/NC(=S)N[C@H]2CC3CCC2C3)cc1 (stereo partly shown),7.65
15,Cc1cc(C)c(C)c(C(=O)COC(=O)CNC(=O)CNC(=O)c2ccco2)c1C,0.304
16,COc1ccc(CCC(=O)Nc2ccc3c(c2)OCO3)cc1,2.6
17,COc1ccc(C(O)P(=O)(OC(C)C)OC(C)C)c(OC)c1 (stereo not shown),22.6
18,C=CCNC(=O)COc1ccc(Br)cc1Cl,-20.6
19,O=C(CSc1nnc2c3ccccc3c3ccccc3c2n1)Nc1ccccc1F,6.85
20,CCCC(=O)Nc1ccc(-c2ccc(NC(=O)CCC)cc2)cc1,3.77
21,Br.O=C(CN1CCCCC1CO)c1ccc(OC(F)F)cc1 (stereo not shown),-68.2
22,COc1ccc(S(=O)(=O)N2CCN(C)CC2)cc1Br,-0.633
23,CCOc1ccc(CCNC(=O)C2CCN(c3nnc(-n4cccc4)s3)CC2)cc1OCC,-35.7

row,Structure (SMILES),"hERG current change (%, negative = inhibition) at 10uM [%]"
1,CCN1CC=C2C(C#N)=C(N)C(C#N)(C#N)C(c3cc(Cl)ccc3Cl)C2C1 (stereo not shown),-29.2
2,CCOc1ccccc1-c1noc(CCC(=O)NC2CCCCC2)n1,5.71
3,CC1CCN(S(=O)(=O)c2nnc(NC(=O)COc3ccccc3)s2)CC1,23.2
4,CCC(=O)N(C)CCc1cc2c(c(OC)c1/C=N/NS(=O)(=O)c1ccc(C)cc1)OCO2,-8.34
5,CC(=O)Nc1ccc(/C=N/NC(=S)NC(C)C)cc1,21.3
6,Cc1ccc2c(c1)C1CN(C)CCC1N2C(=O)COc1ccc(N(C)C(=O)c2ccccc2)cc1 (stereo not shown),-11.6
7,CCSc1nc2c(c(=O)[nH]1)C(c1ccncc1)C(C(=O)OC)=C(C)N2 (stereo not shown),3.28
8,CCOC(=O)Cc1csc(NC(=O)c2cc(=O)c3ccccc3o2)n1,-12.3
9,Cc1ccc(S(=O)(=O)NC(Cc2ccccc2)C(=O)NN)cc1 (stereo not shown),10
10,Cc1c(C(=O)N/N=C/c2ccccn2)nnn1-c1nonc1N,-15.6
11,Cc1cc(Nc2ccccc2C(=O)O)n(-c2cccc(Cl)c2)n1,14.6
12,COc1ccc(/C=C/C2=NN(Cc3ccccc3)C(=O)CC2)cc1,-15.5
13,Cn1ncc([N+](=O)[O-])c1C(=O)N/N=C/c1cccc([N+](=O)[O-])c1,11.5
14,COc1cc(Cl)cc(NC(=O)CCN2CCN(C)CC2)c1,-37
15,COC(=O)c1c(N2C(=O)CCC2=O)sc2c1CCCC2,1.42
16,Cc1ccc(C2(C)NC(=O)N(CC(=O)Nc3ccccc3C(=O)N3CCCCC3)C2=O)cc1 (stereo not shown),6.74
17,Cc1cc(NS(=O)(=O)c2ccc(NC(=O)COc3ccccc3C(C)(C)C)cc2)no1,11.3
18,CC1=C(C(=O)Nc2ccccc2)C(c2ccccc2)N2C(=O)CSC2=N1 (stereo not shown),3.09
19,CCOc1ccc(Br)cc1S(=O)(=O)N1CCC(C(N)=O)CC1,-8.56
20,COc1c(F)c(F)c(C(=O)O)c(Nc2ccc(C)cc2C)c1F,18.8
21,Cc1ccccc1NC(=O)c1ccc2snnc2c1,-10.6
22,CC1CCCC1/C(=N/O)c1ccccc1 (stereo not shown),7.75
23,CCn1c(SCc2ccccc2Cl)nc2ccccc21,-8.43
